According to PubChem BioAssay AID2675 (National Center for Advancing Translational Sciences (NCATS), 2010):
Screen size: about 280,000 compounds; about 100 (0.036%) were called active. The inconclusive results got no clear call from the source; some entries with a clear call stand among them for comparison. The call rests on the fitted dose curve; in most records, active means well fitted inhibition curve with a large enough effect in the signal ratio, with a control signal flat (not every such curve was filed as active); inconclusive means small, poorly fitted or top-dose-only effect, or effect the other way, or a change in a side signal; inactive means no such curve, though single readings can be large or run the other way; the % refers to the signal ratio. Potencies of inconclusive entries are doubtful fits and often do not repeat. “Side channel” marks fits to a control or component signal instead of the main read-out.

molecular target: Muscleblind-like protein 1 (Homo sapiens) (UniProt Q9NR56); assay: qHTS Assay for Inhibitors of MBNL1-poly(CUG) RNA binding; conditions: TR-FRET MBNL1-His/biotin-(CUG)12 binding, 665/545 ratio; activity change, negative = inhibition: at 57.5 µM (top of the series)
UniProt Q9NR56, sequence (Q9NR56 whole entry, looked up): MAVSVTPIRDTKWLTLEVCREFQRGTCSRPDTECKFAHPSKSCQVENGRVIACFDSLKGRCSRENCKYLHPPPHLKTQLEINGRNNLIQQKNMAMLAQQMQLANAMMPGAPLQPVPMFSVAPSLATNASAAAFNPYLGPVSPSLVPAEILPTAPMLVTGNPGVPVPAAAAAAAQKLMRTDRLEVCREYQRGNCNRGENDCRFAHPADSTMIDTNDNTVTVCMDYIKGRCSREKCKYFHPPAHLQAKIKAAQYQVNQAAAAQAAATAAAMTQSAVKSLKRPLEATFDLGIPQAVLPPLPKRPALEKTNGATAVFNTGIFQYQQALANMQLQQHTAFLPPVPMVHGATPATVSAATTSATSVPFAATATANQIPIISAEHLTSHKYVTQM
Method in brief: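 Inhibition of protein-RNA binding appears as loss of TR-FRET between terbium anti-His antibody on MBNL1-His and streptavidin-XL665 on biotin-(CUG)12. Activity is normalized to buffer-only and uninhibited-complex controls.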
On the % scale 0 is the no-effect control and ±100 the full control effect; potency means the concentration at half of the fitted maximal effect; tags describe the fitted curve by direction and shape or compound fluorescence and quenching.

| SMILES | Potency | activity change, negative = inhibition |
| --- | --- | --- |
| O=C(Nc1cccc2nsnc12)c1ccc2c(c1)OCO2 | inconclusive: 15.8 µM [quencher, side channel, partial curve] | – |
| CCOC(=O)C1(Cc2cccc(F)c2)CCN(Cc2c(C)nn(CC)c2C)CC1 | inconclusive: 39.8 µM [inhibitor, single point] | – |
| COc1ccc(-c2nn3c(-c4ccccn4)nnc3s2)cc1OC | inconclusive: 22.4 µM [quencher, side channel, single point] | – |
| O=C(Nc1ccc(Cl)c(C(F)(F)F)c1)NC1CC2CCCC(C1)N2Cc1ccccc1 (configuration not stated) | – | inactive: -6.34% |
| CC(C)(C)OC(=O)NCCCC[C@H](NC(=O)c1nc[nH]c1C(=O)N1CCN(c2ccccc2)CC1)C(=O)OC(C)(C)C | – | inactive: -0.461% |
| O=C(CCCCCN1C(=O)c2cccc3cccc(c23)C1=O)NCCCO | inconclusive: 25.1 µM [quencher, side channel, partial curve, poor fit] | – |
| COC(=O)c1sc(=S)n(-c2cccc(Cl)c2)c1N | – | inactive: 5.34% |
| COc1ccc(OC)c(/C=N/NC(=O)c2csc3ccccc23)c1 | – | inactive: 12% |
| Cc1nc2cc3ccccc3cc2n1C | inconclusive: 31.6 µM [quencher, side channel, single point] | – |
| O=C(O)c1ccc(Sc2nnc3ccccn23)c([N+](=O)[O-])c1 | inconclusive: 8.91 µM [quencher, side channel, partial curve] | – |
| O=C(N/N=C/c1c[nH]c2ccccc12)c1cccc([N+](=O)[O-])c1 | inconclusive: 12.6 µM [quencher, side channel, partial curve] | – |
| CN(C)S(=O)(=O)c1cccc(NC(=S)N/N=C/C(=O)c2ccccc2)c1 | inconclusive: 15.8 µM [quencher, partial curve] | – |
| Cc1ccc([N+](=O)[O-])cc1S(=O)(=O)N1CCNCC1 | inconclusive: 14.1 µM [quencher, partial curve] | – |
| CCCCC(=O)Nc1nnc(C2=COCCO2)o1 | – | inactive: -0.271% |
| CC1(C(=O)NNC(=O)c2cccc([N+](=O)[O-])c2)CC1(Br)Br (configuration not stated) | inconclusive: 10 µM [quencher, side channel, partial curve] | – |
| COC(=O)C1=NN(C(=O)c2ccc(Cl)cc2)C(O)(c2ccccc2)C1 (configuration not stated) | – | inactive: -10.2% |
| Cc1ccc(-c2csc3nc[nH]c(=S)c23)cc1 | – | inactive: -2.12% |
| Cc1ccc(S(=O)(=O)NC2=C(N3CCN(c4ccccc4F)CC3)C(=O)c3ccccc3C2=O)cc1 | inconclusive: 5.62 µM [quencher, side channel, partial curve] | – |
| COc1cc2c(cc1OC)C(/C=C/c1ccco1)=NCC2 | inconclusive: 12.6 µM [quencher, side channel, partial curve] | – |
| O=C1CCN(Cc2ccc([N+](=O)[O-])cc2)CCN1[C@H](CO)Cc1ccccc1 | inconclusive: 28.2 µM [quencher, single point] | – |
| O=C(Cn1cnc2cc([N+](=O)[O-])ccc2c1=O)Nc1ccc2c(c1)CCC2 | inconclusive: 15.8 µM [quencher, side channel, partial curve] | – |

| SMILES | Potency | activity change, negative = inhibition |
| --- | --- | --- |
| O=C(N/N=C/c1ccc2c(c1)OCO2)c1cc(-c2ccc(F)cc2)nc2ccccc12 | – | inactive: -8.43% |
| COc1cccc(OC)c1C(=O)NC(=S)NCc1cccnc1 | – | inactive: 3.34% |
| Cc1ccc(S(=O)(=O)N2CCN(C(=O)COc3ccc(C)nc3[N+](=O)[O-])CC2)c(C)c1 | inconclusive: 10 µM [quencher, side channel, partial curve] | – |
| CCC(=O)NC(c1cccs1)c1ccc2cccnc2c1O (configuration not stated) | – | inactive: 35.8% |
| O=C(COc1ccc(Cl)cc1[N+](=O)[O-])NC1CCCCC1 | inconclusive: 22.4 µM [quencher, side channel, partial curve] | – |
| CCC(=O)Nc1ccc(Nc2nc(C)c([N+](=O)[O-])c(Nc3ccc(NC(=O)CC)cc3)n2)cc1 | inconclusive: 28.2 µM [quencher, side channel, single point] | – |
| COc1ccc(-c2onc(C)c2-c2cscn2)c(O)c1 | – | inactive: -2.37% |
| Cc1cc(NC(=O)CSc2ccc3nnc(-c4ccccc4)n3n2)no1 | inconclusive: 0.631 µM [quencher, side channel, full curve, poor fit] | – |
| O=C(O)C1CSCN1S(=O)(=O)c1cccc2nsnc12 (configuration not stated) | inconclusive: 7.08 µM [quencher, side channel, partial curve] | – |
| Cc1ccc(C(=O)NNC(=S)NC(=O)c2ccc(Cl)cc2Cl)cc1 | – | inactive: -0.11% |
| Cc1c(CCOC(=O)c2cc([N+](=O)[O-])cc([N+](=O)[O-])c2)sc[n+]1CC(=O)c1ccc(Br)cc1 | inconclusive: 12.6 µM [quencher, side channel, partial curve] | – |
| Cc1cc2cc(CNC(=O)C3CCCC3)ccc2n1C | inconclusive: 12.6 µM [quencher, side channel, partial curve] | – |
| COc1ccccc1OCCSc1nc2ccc([N+](=O)[O-])cc2s1 | inconclusive: 22.4 µM [quencher, side channel, single point] | – |
| Cc1cccc(-c2nnc(SC(C)C(=O)N3CCOCC3)o2)c1 (configuration not stated) | – | inactive: -6.68% |
| CCOc1ccc(CCNC(=O)CN(C)S(=O)(=O)c2cccc3nsnc23)cc1OCC | inconclusive: 17.8 µM [quencher, side channel, partial curve] | – |
| CCOC(=O)/C(C#N)=C/c1c(N2CCN(c3ccc(OC)cc3)CC2)nc2c(C)cccn2c1=O | inconclusive: 11.2 µM [quencher, side channel, partial curve] | – |
| O=C(Nc1ccccc1[N+](=O)[O-])c1cccc(N2C(=O)CCC2=O)c1 | inconclusive: 39.8 µM [quencher, single point] | – |
| O=C1C(=O)N(Cc2cccnc2)C(c2ccccn2)/C1=C(/O)c1ccc(Br)cc1 (configuration not stated) | inconclusive: 25.1 µM [quencher, side channel, single point] | – |
| NS(=O)(=O)c1ccc(Nc2ccc([N+](=O)[O-])c3nonc23)cc1 | inconclusive: 17.8 µM [quencher, side channel, partial curve] | – |
| c1ccc(-c2nc3nc4ccccc4nc3n2CC2CCCO2)cc1 (configuration not stated) | inconclusive: 15.8 µM [quencher, side channel, partial curve] | – |
| N#CC1=C(N)N2C(=C(C#N)C13CCCC3)Nc1ccccc12 | inconclusive: 17.8 µM [quencher, side channel, partial curve] | – |

| SMILES | Potency | activity change, negative = inhibition |
| --- | --- | --- |
| N#CC(C(=O)OCc1ccccc1)c1nc2ccccc2nc1N1CCOCC1 (configuration not stated) | inconclusive: 22.4 µM [quencher, side channel, single point] | – |
| CC(NC(=O)c1cnc2ccccc2n1)c1ccccc1 (configuration not stated) | inconclusive: 15.8 µM [quencher, partial curve, poor fit] | – |
| CCSc1ccccc1C(=O)Nc1ccc([N+](=O)[O-])cc1OC | inconclusive: 31.6 µM [quencher, side channel, single point] | – |
| COc1ccc(CC2(CO)CCN(Cc3ccc4nsnc4c3)CC2)cc1 | inconclusive: 17.8 µM [quencher, side channel, partial curve] | – |
| O=C(Nc1ccccc1)Nn1cnnc1 | inconclusive: 158 µM [inhibitor, partial curve] | – |
| CCOC(=O)Cn1c(=NC(=O)C2CC2)sc2c(C)cc(C)cc21 | inconclusive: 39.8 µM [activator, partial curve] | – |
| COc1ccc(OC(=O)c2cccc([N+](=O)[O-])c2)c(C(=O)/C=C/c2cccs2)c1 | inconclusive: 28.2 µM [quencher, side channel, partial curve] | – |
| O=C(CN1C(=O)/C(=C/c2cccc(Br)c2)SC1=S)NCCCN1CCOCC1 | inconclusive: 28.2 µM [quencher, side channel, partial curve] | – |
| COc1ccc2nc(N3CCC(O)CC3)c(C#N)cc2c1 | inconclusive: 11.2 µM [quencher, partial curve] | – |
| Cc1nnc(Cl)c2nn(-c3ccccc3)c(C)c12 | inconclusive: 200 µM [inhibitor, partial curve] | – |
| Fc1ccccc1CSc1ccc(-c2ccco2)nn1 | – | inactive: 6.87% |
| Cc1ccc(-c2cc(C(=O)Nc3nccs3)c3ccccc3n2)o1 | – | inactive: 21.8% |
| O=Nc1c2nc3ccccc3n(O)c-2c2ccccc12 | inconclusive: 10 µM [quencher, side channel, partial curve] | – |
| CC(C)OCCOc1ccc2oc(-c3ccco3)cc(=O)c2c1 | inconclusive: 14.1 µM [quencher, partial curve] | – |
| COc1ccc(S(=O)(=O)N(CCC(=O)O)Cc2ccccc2)cc1 | – | inactive: -3.5% |
| O=C(N/N=C/c1ccc([N+](=O)[O-])o1)c1ccccc1NS(=O)(=O)c1cccs1 | inconclusive: 12.6 µM [quencher, side channel, partial curve] | – |
| O=C(O)c1cc(NCc2cccs2)ccc1N1CCOCC1 | – | inactive: 5.32% |
| CCCCC(=O)Nc1ccc(C(=O)NNC(=O)c2cccs2)cc1 | inconclusive: 0.316 µM [fluorescent, side channel, partial curve] | – |
| COCc1nc2ccccc2n1CCc1ccccc1 | – | inactive: 2.77% |
| Cn1c(=O)n(C)c2cc(NC(=O)Cc3ccccc3[N+](=O)[O-])ccc21 | inconclusive: 22.4 µM [quencher, side channel, single point] | – |
| N#C/C(=C\c1ccc(N2CCOCC2)o1)C(=O)NC1CCCCC1 | inconclusive: 14.1 µM [quencher, side channel, partial curve] | – |

| SMILES | Potency | activity change, negative = inhibition |
| --- | --- | --- |
| COc1cc(-c2cc(C(=O)Nc3ccc(O)cc3)c3ccccc3n2)cc(OC)c1OC | – | inactive: 12.9% |
| O=C(COC(=O)c1ccc([N+](=O)[O-])s1)NCc1ccc(F)cc1 | inconclusive: 3.16 µM [quencher, side channel, full curve] | – |
| Cc1cccn2c(=O)c3cc(C(=O)NCc4ccco4)c(=N)n(C(C)C)c3nc12 | inconclusive: 14.1 µM [quencher, side channel, partial curve] | – |
| COc1cc(C(=O)c2ccccc2Cl)c([N+](=O)[O-])cc1OC | inconclusive: 17.8 µM [quencher, side channel, partial curve] | – |
| CCN(CC)CC(=O)Nc1ccc(/C(C)=N/NC2=NCCN2)cc1 | inconclusive: 0.708 µM [quencher, side channel, full curve, poor fit] | – |
| Cn1ncc(Cl)c1C(=O)Nc1cccc(Cl)c1 | – | inactive: -5.3% |
| O=C(O)c1ccc(Nc2ccc([N+](=O)[O-])c3nonc23)cc1 | inconclusive: 6.31 µM [quencher, side channel, partial curve] | – |
| COC(=O)c1ccc(Nc2cc(C)nc(-c3ccccc3O)n2)cc1 | inconclusive: 4.47 µM [fluorescent, side channel, full curve] | – |
| CN(C)/C=C/C(=O)c1cnc(-c2ccccn2)s1 | inconclusive: 14.1 µM [quencher, partial curve] | – |
| COc1ccc(CCn2c(=N)c(C(=O)NCC3CCCO3)cc3c(=O)n4ccccc4nc32)cc1 (configuration not stated) | inconclusive: 8.91 µM [quencher, side channel, partial curve] | – |
| CN(C)c1ccc(N2C(=O)CC(Sc3ccccc3C(=O)O)C2=O)cc1 (configuration not stated) | – | inactive: -7.17% |
| CCC1=Nc2cc(C(=O)O)ccc2Sc2ccc(Cl)cc21 | – | inactive: -27.5% |
| NC(=O)c1cc(-c2csc(-c3cccnc3)n2)ccc1O | inconclusive: 15.8 µM [quencher, side channel, partial curve] | – |
| CCOC(=O)C1CCN(C2CC(=O)N(c3ccc(OCC)cc3)C2=O)CC1 (configuration not stated) | inconclusive: 15.8 µM [quencher, side channel, partial curve] | – |
| Cc1cccn2c(=O)c3cc(C(=O)NC4CCCC4)c(=N)n(CCCN4CCOCC4)c3nc12 | inconclusive: 12.6 µM [quencher, side channel, partial curve] | – |
| CC1(C)Cc2c(C#N)c(SCc3ccccc3)nc(N3CCOCC3)c2CO1 | – | inactive: 4.26% |
| O=C1/C(=C/c2cccnc2)SC(=S)N1c1ccc(O)cc1 | inconclusive: 12.6 µM [quencher, side channel, partial curve] | – |
| O=C(NCc1cccs1)c1cnc2sccn2c1=O | inconclusive: 39.8 µM [quencher, side channel, single point] | – |
| CC(NC(=O)C(NS(=O)(=O)c1cccc2nsnc12)C(C)C)c1ccccc1 (configuration not stated) | inconclusive: 4.47 µM [quencher, side channel, partial curve] | – |
